Test results: the antibiotic and cytotoxicity screens of Wong et al. (2023)
The list shows a part of the results.

Tested on: HSkMC (human skeletal muscle cells)
Test: cytotoxicity call (relative viability < 0.9)
Conditions: 10 µM

| Compound | cytotoxicity call |
| --- | --- |
| COc1ccc(CN(C)C[C@@H]2OCCCC[C@@H](C)Oc3ccc(NC(=O)Cc4ccccc4)cc3C(=O)N([C@H](C)CO)C[C@@H]2C)cc1 | inactive |
| COc1ccc(CN(C)C[C@@H]2OCCCC[C@H](C)Oc3ccc(NC(=O)CCC(F)(F)F)cc3C(=O)N([C@@H](C)CO)C[C@@H]2C)cc1 | inactive |
| Cc1noc(C)c1S(=O)(=O)N(C)C[C@@H]1Oc2ccc(NS(=O)(=O)c3ccc(Cl)cc3)cc2C(=O)N([C@@H](C)CO)C[C@@H]1C | inactive |
| C[C@@H]1CCCCO[C@H](CN(C)S(=O)(=O)c2ccc(Cl)cc2)[C@H](C)CN([C@@H](C)CO)C(=O)c2cc(NC(=O)NC3CCCCC3)ccc2O1 | inactive |
| COc1ccc([C@H](O)[C@H](CCO)OC)cc1O | inactive |
| C[C@@H]1CN([C@@H](C)CO)C(=O)c2cccc(NC(=O)Nc3ccccc3)c2O[C@H]1CN(C)S(C)(=O)=O | inactive |
| CN1C(=O)c2cc(NC(=O)c3cccc(C#N)c3)ccc2OC[C@H]2O[C@@H](CC(=O)NCCN3CCCC3)CC[C@@H]21 | inactive |
| C[C@@H]1CN([C@H](C)CO)C(=O)c2cc(NC(=O)Nc3ccc4c(c3)OCO4)ccc2O[C@@H](C)CCCCO[C@@H]1CN(C)C(=O)Cc1ccccc1 | inactive |
| C[C@@H]1CN([C@@H](C)CO)S(=O)(=O)c2ccc(C#C[C@@H](C)O)cc2O[C@H]1CN(C)C(=O)c1ccncc1 | inactive |
| Cc1noc(C)c1S(=O)(=O)Nc1cccc2c1O[C@H](CN(C)Cc1ccc(Oc3ccccc3)cc1)[C@H](C)CN([C@H](C)CO)C2=O | inactive |
| C[C@H]1CCCCO[C@H](CN(C)C(=O)Nc2ccccc2)[C@@H](C)CN([C@@H](C)CO)C(=O)c2cc(NS(=O)(=O)c3ccc(Cl)cc3)ccc2O1 | inactive |
| CCOC(=O)c1ncn2c1C(=O)OC2(C)C | inactive |
| C[C@@H]1CN([C@H](C)CO)C(=O)CCCn2cc(nn2)CO[C@H]1CN(C)C(=O)Nc1ccc(C(F)(F)F)cc1 | inactive |
| C/C=C/c1ccc2c(c1)O[C@@H](CN(C)S(=O)(=O)c1ccc(F)cc1)[C@@H](C)CN([C@H](C)CO)S2(=O)=O | inactive |
| CCCN1C[C@@H](C)[C@@H](OC)CN(C)C(=O)c2cc(NS(=O)(=O)c3cn(C)cn3)ccc2OC[C@H]1C | inactive |
| C[C@@H]1CN([C@H](C)CO)C(=O)c2cc(NC(=O)C3CCCCC3)ccc2O[C@@H](C)CCCCO[C@H]1CN(C)C(=O)CCC(F)(F)F | inactive |
| C[C@H]1CCCCO[C@H](CN(C)Cc2ccncc2)[C@@H](C)CN([C@@H](C)CO)C(=O)c2cc(NC(=O)Nc3ccc4c(c3)OCO4)ccc2O1 | inactive |

Tested on: HepG2
Test: cytotoxicity call (relative viability < 0.9)
Conditions: 10 µM

| Compound | cytotoxicity call |
| --- | --- |
| Cn1cc(-c2cc3c(N4CCN(c5ncc([C@@](C)(N)c6ccc(F)cc6)cn5)CC4)ncnn3c2)cn1 | active |
| Cn1cnc(S(=O)(=O)N2C[C@@H](O)COC[C@@H]3O[C@@H](CC(=O)NC4CCC4)CC[C@H]32)c1 | inactive |
| O=C(C[C@@H]1CC[C@@H](NC(=O)c2cccnc2)[C@@H](CO)O1)NCCN1CCCCC1 | inactive |
| C[C@@H]1CCCCO[C@H](CN(C)Cc2ccccc2)[C@H](C)CN([C@H](C)CO)C(=O)c2cc(NC(=O)Cc3ccccc3)ccc2O1 | inactive |
| CO[C@H]1CN(C)C(=O)c2cc(NC(=O)c3ccc(F)cc3)ccc2OC[C@@H](C)N(C(=O)CN(C)C)C[C@@H]1C | inactive |
| Cc1noc(C)c1S(=O)(=O)Nc1ccc2c(c1)CC(=O)N([C@H](C)CO)C[C@@H](C)[C@@H](CN(C)S(=O)(=O)c1cn(C)cn1)O2 | inactive |
| C[C@@H]1CN([C@@H](C)CO)C(=O)c2cccc(NC(=O)c3cnccn3)c2O[C@@H]1CN(C)S(=O)(=O)c1ccc(Cl)cc1 | inactive |
| COc1ccc(S(=O)(=O)Nc2cccc3c2O[C@H](CN(C)Cc2ccncc2)[C@H](C)CN([C@H](C)CO)C3=O)cc1 | inactive |
| C[C@@H]1CN([C@H](C)CO)C(=O)c2cc(NC(=O)Cc3ccccc3)ccc2O[C@@H](C)CCCCO[C@@H]1CN(C)C(=O)CCC(F)(F)F | inactive |
| C[C@@H]1CN([C@H](C)CO)C(=O)c2cc(NC(=O)Nc3ccc4c(c3)OCO4)ccc2O[C@@H]1CN(C)Cc1ccc(C(=O)Nc2ccccc2N)cc1 | inactive |
| C[C@H](CO)N1C[C@H](C)[C@H](CN(C)Cc2ccc3c(c2)OCCN3C)OCc2cnnn2CCCC1=O | inactive |
| C[C@@H]1CCCCO[C@H](CN(C)C(=O)NC2CCCCC2)[C@H](C)CN([C@@H](C)CO)C(=O)c2cc(NS(=O)(=O)c3ccccc3)ccc2O1 | inactive |
| Cc1noc(C)c1NC(=O)Nc1cccc2c1O[C@@H](CN(C)S(C)(=O)=O)[C@@H](C)CN([C@@H](C)CO)C2=O | inactive |
| COc1cccc([C@@H](N)c2ccccc2)c1 | inactive |
| COc1ccc(C#Cc2cnc3c(c2)C(=O)N([C@H](C)CO)C[C@H](C)[C@H](CN(C)S(=O)(=O)c2cccs2)O3)cc1OC | inactive |
| COc1ccc(CN(C)C[C@@H]2OCCCC[C@H](C)Oc3ccc(NC(=O)c4ccccc4)cc3C(=O)N([C@@H](C)CO)C[C@H]2C)cc1 | inactive |
| CCN1C(=O)[C@@H]2CN(C(C)=O)C[C@@H]2C12CCN(C(=O)COC)CC2 | inactive |
| COc1ccc2c(c1)OCC(Cc1ccc(OC)c(O)c1)C2=O (configuration not stated) | active |
| C[C@@H]1CN([C@H](C)CO)C(=O)Cc2cc(NC(=O)c3ccncc3)ccc2O[C@H]1CN(C)Cc1ccncc1 | inactive |
| C[C@@H]1CN([C@@H](C)CO)C(=O)c2cccc(NS(=O)(=O)c3ccccc3)c2O[C@H]1CN(C)S(=O)(=O)c1ccc(F)cc1 | inactive |

| Compound | cytotoxicity call |
| --- | --- |
| O=C(C[C@H]1CC[C@@H]2[C@H](COC[C@@H](O)CN2C(=O)c2ccncc2)O1)NC1CCC1 | inactive |
| COc1ccc(NC(=O)Nc2ccc3c(c2)C(=O)N([C@H](C)CO)C[C@@H](C)[C@H](CN(C)S(=O)(=O)c2ccccc2)OCCCC[C@@H](C)O3)cc1 | inactive |
| C[C@@H]1CN([C@@H](C)CO)S(=O)(=O)c2ccc(-c3cccc(C(=O)N(C)C)c3)cc2O[C@H]1CN(C)C(=O)Cc1ccccn1 | inactive |
| COc1ccc(CN(C)C[C@@H]2OCCCC[C@@H](C)Oc3ccc(NC(=O)Cc4ccccc4)cc3C(=O)N([C@H](C)CO)C[C@@H]2C)cc1 | inactive |
| COc1ccc(CN(C)C[C@@H]2OCCCC[C@H](C)Oc3ccc(NC(=O)CCC(F)(F)F)cc3C(=O)N([C@@H](C)CO)C[C@@H]2C)cc1 | inactive |
| Cc1noc(C)c1S(=O)(=O)N(C)C[C@@H]1Oc2ccc(NS(=O)(=O)c3ccc(Cl)cc3)cc2C(=O)N([C@@H](C)CO)C[C@@H]1C | inactive |
| C[C@@H]1CCCCO[C@H](CN(C)S(=O)(=O)c2ccc(Cl)cc2)[C@H](C)CN([C@@H](C)CO)C(=O)c2cc(NC(=O)NC3CCCCC3)ccc2O1 | inactive |
| COc1ccc([C@H](O)[C@H](CCO)OC)cc1O | inactive |
| C[C@@H]1CN([C@@H](C)CO)C(=O)c2cccc(NC(=O)Nc3ccccc3)c2O[C@H]1CN(C)S(C)(=O)=O | inactive |
| CN1C(=O)c2cc(NC(=O)c3cccc(C#N)c3)ccc2OC[C@H]2O[C@@H](CC(=O)NCCN3CCCC3)CC[C@@H]21 | inactive |
| C[C@@H]1CN([C@H](C)CO)C(=O)c2cc(NC(=O)Nc3ccc4c(c3)OCO4)ccc2O[C@@H](C)CCCCO[C@@H]1CN(C)C(=O)Cc1ccccc1 | inactive |
| C[C@@H]1CN([C@@H](C)CO)S(=O)(=O)c2ccc(C#C[C@@H](C)O)cc2O[C@H]1CN(C)C(=O)c1ccncc1 | inactive |
| Cc1noc(C)c1S(=O)(=O)Nc1cccc2c1O[C@H](CN(C)Cc1ccc(Oc3ccccc3)cc1)[C@H](C)CN([C@H](C)CO)C2=O | inactive |
| C[C@H]1CCCCO[C@H](CN(C)C(=O)Nc2ccccc2)[C@@H](C)CN([C@@H](C)CO)C(=O)c2cc(NS(=O)(=O)c3ccc(Cl)cc3)ccc2O1 | inactive |
| CCOC(=O)c1ncn2c1C(=O)OC2(C)C | inactive |
| C[C@@H]1CN([C@H](C)CO)C(=O)CCCn2cc(nn2)CO[C@H]1CN(C)C(=O)Nc1ccc(C(F)(F)F)cc1 | inactive |
| C/C=C/c1ccc2c(c1)O[C@@H](CN(C)S(=O)(=O)c1ccc(F)cc1)[C@@H](C)CN([C@H](C)CO)S2(=O)=O | inactive |
| CCCN1C[C@@H](C)[C@@H](OC)CN(C)C(=O)c2cc(NS(=O)(=O)c3cn(C)cn3)ccc2OC[C@H]1C | inactive |
| C[C@@H]1CN([C@H](C)CO)C(=O)c2cc(NC(=O)C3CCCCC3)ccc2O[C@@H](C)CCCCO[C@H]1CN(C)C(=O)CCC(F)(F)F | inactive |
| C[C@H]1CCCCO[C@H](CN(C)Cc2ccncc2)[C@@H](C)CN([C@@H](C)CO)C(=O)c2cc(NC(=O)Nc3ccc4c(c3)OCO4)ccc2O1 | inactive |
